Experimental findings from paper PMC6919601, “Identification of Plasmodium dipeptidyl aminopeptidase allosteric inhibitors by high throughput screening” (PLoS ONE, 2019) are described below.

Molecules are shown by their SMILES. Values joined by “and” are separate entries in the source; they are usually repeats but may differ in a detail not shown here. Equal entries are not always repeated. Out of some 110,000 compounds screened, about 230 (0.21%) showed an effect of 50% or more. This is one part of the list.
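Note: 30 min substrate incubation versus DMSO and 10 µM JCP410 controls.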

For the assay, the target named is DPAP1 (Plasmodium falciparum, UniProt Q8IIJ9). Put plainly: primary screen, percent inhibition; read by cleavage of a fluorogenic dipeptide substrate; higher = more effect of the substance. Also on record: species or system P. falciparum D10 trophozoite lysates; single well.
Sequence of DPAP1 (Q8IIJ9 whole entry, looked up): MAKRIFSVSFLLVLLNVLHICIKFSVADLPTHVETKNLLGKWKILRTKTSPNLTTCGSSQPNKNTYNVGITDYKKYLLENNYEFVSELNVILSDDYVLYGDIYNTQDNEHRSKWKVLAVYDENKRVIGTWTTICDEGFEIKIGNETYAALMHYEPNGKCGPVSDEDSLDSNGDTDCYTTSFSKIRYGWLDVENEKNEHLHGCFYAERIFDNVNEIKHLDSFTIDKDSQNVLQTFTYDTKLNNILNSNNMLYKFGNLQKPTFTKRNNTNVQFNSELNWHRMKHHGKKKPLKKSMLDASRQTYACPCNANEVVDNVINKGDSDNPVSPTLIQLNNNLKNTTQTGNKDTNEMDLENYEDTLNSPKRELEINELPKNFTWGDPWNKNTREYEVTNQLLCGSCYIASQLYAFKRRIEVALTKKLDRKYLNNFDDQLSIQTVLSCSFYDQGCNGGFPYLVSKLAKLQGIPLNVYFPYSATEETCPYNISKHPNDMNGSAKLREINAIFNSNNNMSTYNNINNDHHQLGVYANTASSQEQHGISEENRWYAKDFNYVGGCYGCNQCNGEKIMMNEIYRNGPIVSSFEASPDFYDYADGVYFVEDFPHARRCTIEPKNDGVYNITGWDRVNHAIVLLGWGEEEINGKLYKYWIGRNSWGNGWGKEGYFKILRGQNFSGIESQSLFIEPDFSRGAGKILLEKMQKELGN
For `COc1cc(C2C(C#N)=C(N)Oc3c2oc(CO)cc3=O)cc(OC)c1OC` (centres unmarked), the “% Inhibition @ 10 uM” value is on record as 2.38%.
On to `Cc1cc(=O)n(Cc2ccncc2)c2c1c(C)nn2-c1cccc(F)c1`, for which the “% Inhibition @ 10 uM” value was determined as 1.27%.
On to `O=C(CC1c2ccccc2Oc2ccccc21)NCC1CCCO1` (centres unmarked), for which the “% Inhibition @ 10 uM” value is given as -4.67%.
`CC(C)Cc1ccc(C(C)C(=O)Nc2ccccn2)cc1` (centres unmarked): the “% Inhibition @ 10 uM” value was 2.34%.
To `CCN(CC)C(=O)NCCN1C(=O)C2C3C=CC(C3)C2C1=O` (centres unmarked) belongs -6.78%; to `CN(Cc1ccccc1)C(=O)CCNS(=O)(=O)c1ccc2nc(O)ccc2c1`, -5.85%.
Turning to `COc1ccc(C(=O)NCCn2cc(SCC(=O)N3CCCCC3)c3ccccc32)cc1`, the “% Inhibition @ 10 uM” value is reported as 3.54%.
Then `CCOC(=O)C1=C(CN2CCCCC2)NC(=O)NC1c1ccc(Cl)cc1` (centres unmarked), with -1.72%.
Consider `COc1ccc(/C=c2/sc3nc4c(C)c(C)ccc4n3c2=O)cc1`, for which the “% Inhibition @ 10 uM” value is -0.053%.
For the compound `C=CCn1c(SCC(=O)NCc2ccc3c(c2)OCO3)nc2sc3c(c2c1=O)CCC3`, the “% Inhibition @ 10 uM” value is -10.3%.
For the compound `CCN(CC)CC(O)Cn1c2ccccc2c2ccccc21` (centres unmarked), the “% Inhibition @ 10 uM” value is on record as -5.62%.
Consider `Cc1ccc(-c2cc3c(nn2)-c2ccccc2C3=O)o1`, for which the “% Inhibition @ 10 uM” value is -0.736%.
For the compound `COc1ccc(C(=O)Nc2cc(C(F)(F)F)ccc2Cl)cc1OC`, the “% Inhibition @ 10 uM” value is -2.03%.
With `CC(CCc1ccccc1)NC(=O)C1CCCN(S(=O)(=O)c2ccc3nc(O)ccc3c2)C1` (centres unmarked), the “% Inhibition @ 10 uM” value was -7.74%.
As to `CCOc1ccc(C2C3=C(O)CCCC3=NC(C)=C2C(=O)Nc2ccc(Br)cn2)cc1` (centres unmarked), the “% Inhibition @ 10 uM” value is on record as 2.7%.
Turning to `CC1=C(C(=O)OC2CCCC2)C(c2ccncc2)C2=C(O)CC(C)(C)CC2=N1` (centres unmarked), the “% Inhibition @ 10 uM” value turned out to be 1.27%.
On to `COc1ccc2c(=O)c(-c3ccccc3)c(C)oc2c1C`, for which the “% Inhibition @ 10 uM” value is -18.8%.
As to `CCn1cc(/C=C2\CCCC3=C2OC(N)=C(C#N)C3c2cn(CC)nc2C)c(C)n1` (centres unmarked), the “% Inhibition @ 10 uM” value is recorded as -2.24%.
To `Nc1c(Nc2ccc(C(=O)O)cc2)c2ccccc2oc1=O` belongs -2.6%; to `Fc1ccccc1N1CCN(Cc2ccc3ccccc3c2)CC1`, 0.605%.
On to `Cc1ccsc1/C=C1/SC(N2CC(C)OC(C)C2)=NC1=O` (centres unmarked), for which the “% Inhibition @ 10 uM” value came out at 4.74%.
For the compound `Cc1cc(C)c2c(C)nn(-c3ccc(Br)cc3)c2n1`, the “% Inhibition @ 10 uM” value is given as -3.14%.
To `O/N=C1\C2CCN(CC2)C1Cc1ccccc1O` (centres unmarked) belongs -0.0648%; to `CCC(Cc1ccccc1)NC(=O)Cn1cccc1C(=O)c1ccccc1` (centres unmarked), 1.15%; to `Cc1nsc2c1ccc1sccc12`, 3.36%.
To `NS(=O)(=O)c1ccc(NC(=O)/C(=C/c2ccc([N+](=O)[O-])cc2)NC(=O)c2ccccc2)cc1` belongs 5.04%; to `COc1ccccc1OCc1ccc(C(=O)N2CC(C)OC(C)C2)cc1` (centres unmarked), -1.93%; to `O=C(Nc1ccc(Cl)c(Cl)c1)[C@@H]1C[C@@H]1c1ccccc1`, -3.13%.
As to `COc1ccc(-c2noc(CSc3nnc(-c4ccncc4)n3-c3ccc(F)cc3)n2)cc1`, the “% Inhibition @ 10 uM” value is on record as 6.01%.
Take `Cc1ccccc1OCC(=O)N(Cc1sccc1C)C1CCS(=O)(=O)C1` (centres unmarked): the “% Inhibition @ 10 uM” value was found to be 0.569%.
On to `CC(C)C[C@H](NC(=O)c1cc(-c2ccccc2Cl)c(Cl)s1)C(=O)NCC#N`, for which the “% Inhibition @ 10 uM” value was -3.48%.
Consider `COc1ccc(N(Cc2ccc(Br)cc2)C(=O)c2ccc([N+](=O)[O-])cc2)cc1`, for which the “% Inhibition @ 10 uM” value amounted to 3.42%.
Take `O=C(Nc1ccc(Cl)cc1)C(O)(c1ccccc1)c1ccccc1`: the “% Inhibition @ 10 uM” value amounted to 6.09%.
For `CCOC(=O)N1CCC(n2c(SCC(=O)Nc3nccs3)nc3ccsc3c2=O)CC1`, the “% Inhibition @ 10 uM” value was 3.05%.
Then `CCN(CC)CCCNC(=O)CSc1nc2nc(C)c(Cc3ccc(C)cc3)c(C)n2n1`, with -10.7%; and `O=C1NC(=O)/C(=C\c2ccc(N3CCOCC3)o2)N1`, with -7.23%; and `COc1ccc(C2CC(=O)C(/C=N/CCN3CCN(C(=O)c4ccccc4)CC3)=C(O)C2)cc1` (centres unmarked), with -3.14%.
Take `CN1C(=O)NC(=O)/C(=C/c2cc(Br)cc(Cl)c2O)C1=O`: the “% Inhibition @ 10 uM” value was -0.274%.
For `Cc1ccc(CCSc2ccc(F)cc2)cn1`, the “% Inhibition @ 10 uM” value was -1.45% and 3.12%.
Then `Cc1cccc(NC(=O)c2cc3ccccc3cc2O)c1C`, with 2.34%.
Take `Cc1cccc(NC(=O)CSc2nc(O)c(C#N)c(-c3ccccc3)n2)c1C`: the “% Inhibition @ 10 uM” value stood at 1.4%.
For the compound `O=C(CCc1nc2cccnc2n1Cc1cccs1)NCc1ccccc1Cl`, the “% Inhibition @ 10 uM” value was -1.7%.
Then `CCc1ccc(NC(=O)CC2(c3ccccc3)C(=O)c3ccccc3C2=O)cc1`, with -3.81%.
To `O=C(c1cccnc1N1CCN(CCO)CC1)N1CCOCC1` belongs -6.36%.
As to `O=C(c1ccc(Br)o1)N1CCc2ccccc21`, the “% Inhibition @ 10 uM” value was 1.84%.
To `CCc1nnc(NC(=O)CSC2=NC(=O)C(c3ccccc3)C(=O)N2)s1` (centres unmarked) belongs 1.26%; to `Cc1cc(NC(=O)c2ccc(C(=O)Nc3cc(C)on3)nc2)no1`, -6.25%; to `O=C(CNC(=O)OCc1ccccc1)NCCc1nc2ccccc2[nH]1`, -0.0735%.
Turning to `COc1ccc(C(=O)NC2CCCCCCC2)cc1OC`, the “% Inhibition @ 10 uM” value is on record as -0.999%.
Turning to `O=C1/C(=C/c2ccc3nccnc3c2)Cc2ccccc21`, the “% Inhibition @ 10 uM” value was -2.95%.
